According to PubChem BioAssay AID1347043 (National Center for Advancing Translational Sciences (NCATS), 2019):
The whole screen tested about 76,000 compounds, of which about 1,900 (2.5%) were called active. The inconclusive results got no clear call from the source; some entries with a clear call stand among them for comparison. Calls follow the shape of the dose curve; as a rule, active = well fitted inhibition curve with a large enough effect; inconclusive = small, poorly fitted or top-dose-only effect; inactive = flat fitted curve, though single readings scatter. Potencies of inconclusive entries are doubtful fits and often do not repeat.

Molecular target: Luciferin 4-monooxygenase (Photinus pyralis) (UniProt P08659)
Assay: Firefly luciferase inhibition profiling of diverse chemical library using quantitative high-throughput screening; also: nearly all actives have a fitted effect of over 65% in size
Conditions: purified P. pyralis luciferase, luminescence, biochemical; series mostly up to 115 µM
In short: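 Purified P. pyralis luciferase (10nM final) in 50mM Tris acetate pH 7.5, 10mM Mg acetate, 0.01% Tween-20, 0.05% BSA with 10uM D-luciferin and 10uM ATP. Compounds titrated qHTS. Luminescence imaged on CCD.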
Potency is read from the fitted curve at half-maximal effect; tags tell the direction and shape of the fitted curve.

Sequence of UniProt P08659 (P08659 whole entry, looked up): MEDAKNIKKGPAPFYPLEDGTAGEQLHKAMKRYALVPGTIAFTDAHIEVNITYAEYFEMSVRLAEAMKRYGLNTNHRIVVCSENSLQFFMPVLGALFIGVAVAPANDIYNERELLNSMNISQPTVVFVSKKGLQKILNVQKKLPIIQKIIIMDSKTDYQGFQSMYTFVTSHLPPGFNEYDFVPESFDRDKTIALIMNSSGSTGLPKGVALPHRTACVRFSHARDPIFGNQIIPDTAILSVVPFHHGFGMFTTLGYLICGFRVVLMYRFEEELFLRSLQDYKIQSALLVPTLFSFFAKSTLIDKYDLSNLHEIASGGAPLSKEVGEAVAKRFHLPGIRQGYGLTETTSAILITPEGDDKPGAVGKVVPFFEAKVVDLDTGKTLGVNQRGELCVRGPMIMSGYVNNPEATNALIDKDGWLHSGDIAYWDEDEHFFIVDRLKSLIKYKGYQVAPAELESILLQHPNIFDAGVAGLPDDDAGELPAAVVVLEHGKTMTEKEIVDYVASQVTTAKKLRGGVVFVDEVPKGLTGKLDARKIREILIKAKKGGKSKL

SMILES	Potency
COc1ncccc1-c1cnc2[nH]cc(CC(N)=O)c2c1	inactive
Cc1cn2nc(C(=O)N3CCC(C(=O)NCc4cccnc4)CC3)cc2c(=O)[nH]1	inactive
COc1ccccc1CC(=O)Nc1cccn2nc(C(C)C)nc12	inactive
Cn1c(-c2ccc(CN3CC[C@H]4CNC[C@H]43)o2)nc2ccccc21	inconclusive: 79.4 µM [inhibitor, partial curve]
CSCC(=O)N[C@H]1CCN2C(=O)c3cc(-c4ccccc4)ccc3NC(=O)[C@H]12	inconclusive: 126 µM [inhibitor, single point]
CC(C)c1nc(C2Cc3ccccc3N2C(=O)C2CC2)no1 (configuration not stated)	inconclusive: 39.8 µM [inhibitor, partial curve]
CC(C)(Oc1nn(Cc2cccc(Cl)c2)c2ccccc12)C(=O)NCC1CCOCC1	inactive
Cc1ccc(-n2nc(C)c([C@@H]3C=C[C@@H](NC(=O)NCc4ccccc4)C3)c2C)cc1Cl	active: 7.94 µM
Cc1cccc(NC(=O)CCC2CCN(C(=O)CCCc3cccs3)CC2)c1	inconclusive: 50.1 µM [inhibitor, partial curve]
O=S(=O)(Cc1ccccc1)N1CCCC(Cc2noc(-c3cccnc3)n2)C1 (configuration not stated)	inconclusive: 44.7 µM [inhibitor, partial curve]
O=C(CC1CCCC1)N1CC2CC(C1)[C@H]1CCCC(=O)N1C2 (some centres not stated)	inactive
CN1CCN(c2ccc(-c3nccc4c(=O)cc(N(C)c5ccccc5)oc34)cn2)CC1	inconclusive: 70.8 µM [inhibitor, partial curve]
CCCNc1cc(N2CCC(CCC(=O)NCc3ccccc3)CC2)ncn1	inconclusive: 39.8 µM [inhibitor, partial curve]
COc1ccccc1-c1cnc(Nc2ccc(CN3CCN(C)CC3)cc2)c2c1CCO2	inconclusive: 79.4 µM [inhibitor, partial curve]
COc1cccc(-c2cc3c(=O)n(CCNC(=O)c4ccoc4)ccn3n2)c1	inconclusive: 25.1 µM [inhibitor, full curve]
COCC1CCN(Cc2cc3ccc(OC)cc3nc2-c2cccc(C)c2)C1 (configuration not stated)	inconclusive: 50.1 µM [inhibitor, partial curve]
O=C(NCc1ccc(Cl)cc1)c1noc(-c2ccc3c(c2)OCO3)n1	inconclusive: 28.2 µM [inhibitor, full curve]
CC(C)S(=O)(=O)N1CCC(F)(c2nc(-c3ccccc3)no2)CC1	inconclusive: 50.1 µM [inhibitor, partial curve]
Cc1ccc(-c2noc([C@@H]3C[C@@H](O)CN3Cc3ncc[nH]3)n2)cc1F	active: 25.1 µM
CC1=NS(=O)(=O)N(C)C=C1C(=O)OCc1noc(-c2ccccc2Cl)n1	inconclusive: 39.8 µM [inhibitor, partial curve, poor fit]
O=C(NCc1ccc2c(c1)OCO2)C1CCN(C(=O)c2ncn3c2COC(c2ccccc2)C3)CC1 (configuration not stated)	active: 7.94 µM

SMILES	Potency
Cc1ccc(C(=O)N2CCC(CCC(=O)NC3CCCCCC3)CC2)cc1	active: 39.8 µM
COc1ccc(NC(=O)N2CCc3c(C(=O)N(C)Cc4ccco4)cccc32)cc1	active: 3.98 µM
O=C(NCCn1cccc1-c1nc(-c2ccccc2)no1)c1ccccc1F	inconclusive: 14.1 µM [inhibitor, full curve]
CCOC(=O)C1(Cc2ccc(F)cc2F)CCCN(C(=O)Nc2ccc3c(c2)OCO3)C1 (configuration not stated)	inconclusive: 44.7 µM [inhibitor, partial curve]
Cc1ncsc1CCNC(=O)c1ccc2nc(-c3ccccc3)cn2c1	inconclusive: 39.8 µM [inhibitor, partial curve]
CCNC(=O)N[C@@H]1C=C[C@@H](c2c(C)nn(-c3ccc(C(C)(C)C)cc3)c2C)C1	inconclusive: 14.1 µM [inhibitor, full curve, poor fit]
O=C(Nc1ccc2c(c1)OCCO2)N1CCC(N2CC3CC(C2)[C@H]2CCCC(=O)N2C3)CC1 (some centres not stated)	inconclusive: 50.1 µM [inhibitor, partial curve]
COc1ccc(-c2ccc(COc3ccc4c(cnn4CCC(=O)O)c3)cc2)c(Cl)c1	inconclusive: 50.1 µM [inhibitor, full curve]
O=C(CCC[C@H]1NC[C@@H]2C[C@H]1CN(Cc1ccccc1)C2)Nc1ccc(N2CCOCC2)cc1	inconclusive: 50.1 µM [inhibitor, partial curve]
CC(C)C(=O)N1CCCC(c2noc(COc3ccccc3F)n2)C1 (configuration not stated)	active: 39.8 µM
O=C(NC1CCCN(c2cc(-c3ccccc3)[nH]n2)C1)c1cccc2[nH]ccc12 (configuration not stated)	inconclusive: 44.7 µM [inhibitor, partial curve]
COc1cccc(CN2CCc3nc(C(=O)Nc4cccnc4)oc3CC2)c1	active: 22.4 µM
CN(CC1CCOCC1)C(=O)NCCc1ccccc1	inconclusive: 50.1 µM [inhibitor, partial curve]
CCc1ccc(NC(=O)N2CCc3c(c4ccccc4n3C)C2)cc1	inconclusive: 39.8 µM [inhibitor, partial curve]
O=C(Cc1c[nH]c2ccccc12)N1CCC(N2C(=O)C(O)C23CCCCC3)CC1 (configuration not stated)	inactive
Cc1ccccc1CN1CC[C@H](c2nnc(-c3ccc(N(C)C)cc3)o2)C1	inconclusive: 63.1 µM [inhibitor, full curve]
COc1ccccc1-c1cc2c(ccn2C)c(C(=O)NCCN2CCNC2=O)n1	inactive
O=C(c1ccc(Cl)cc1)N1CCC(n2cc(-c3nc(-c4ccccc4)no3)nn2)C1 (configuration not stated)	inconclusive: 56.2 µM [inhibitor, partial curve, poor fit]
COCC(=O)Nc1ccc(-c2c(-c3ccccc3OC)nn(-c3ccc(C)cc3)c2OC(C)=O)cc1	inconclusive: 50.1 µM [inhibitor, partial curve, poor fit]
O=C(Cc1ccc(F)cc1)N1CCC(n2cc(-c3nc(-c4ccccc4)no3)nn2)C1 (configuration not stated)	inconclusive: 89.1 µM [inhibitor, single point]
O=C(NCc1nnc2c(-c3nc(C4CC4)no3)cccn12)c1nccc2ccccc12	inactive
